Test results: PubChem BioAssay AID686971 (National Center for Advancing Translational Sciences (NCATS), 2013)
Out of some 360,000 compounds screened, about 7,500 (2.1%) were called active. This list was built around the results that the source calls inconclusive (neither active nor inactive); the mix of calls is not that of the screen. Calls follow the shape of the dose curve; as a rule, active = well fitted cell-killing curve with a large enough effect; inconclusive = small, poorly fitted or top-dose-only effect, or effect the other way, or another doubt; inactive = no such curve, though single readings can be large or run the other way. Potencies of inconclusive entries are left out as doubtful fits.
Potency is read from the fitted curve at half-maximal effect; tags tell the direction and shape of the fitted curve.

Assay: qHTS for induction of synthetic lethality in tumor cells producing 2HG: qHTS for the HT-1080-IDH1KD cell line
Conditions: HT-1080 IDH1 knockdown viability, ATP luminescence, 48 h; series mostly up to 46.1 µM
How it was run: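 Using the IDH1-knockdown HT-1080 line run in the same batch and compound series as the NT line, viability after 48 h at 37 °C was determined by CellTiter-Glo luminescence and expressed as % activity.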
In the case of `COc1ccc(-c2cc(-c3nnc(COC(=O)c4ccc(O)cc4)o3)c3ccccc3n2)cc1OC`, the Potency is reported as inconclusive [cytotoxic, single point].
With `O=C(NC(=S)Nc1ccc(CN2CCCCC2)cc1)c1cccc(OCc2ccccc2)c1` the Potency was active: 20.6 µM.
With `CN(C(=O)c1ccc(NC(=O)c2ccco2)cc1)c1ccccc1` the Potency was inconclusive [cytotoxic, partial curve].
With `N#CC1=C(N)S[C@H](C(=O)C23CC4CC(CC(C4)C2)C3)[C@H]1c1ccncc1` the Potency was inconclusive [cytotoxic, single point].
In the case of `OCCCn1c(CCCNc2nc(-c3cccc(Br)c3)cs2)nc2cc(Cl)c(N3CCCCC3)cc21`, the Potency is reported as inconclusive [cytotoxic, single point].
For `Cc1ccc(/C(=N\O)c2oc3c(C)c4oc(=O)cc(C)c4cc3c2C)cc1`, the Potency was active: 23.1 µM.
In the case of `Cc1ccc2[nH]c3c(N4CCOCC4)ncnc3c2c1`, the Potency is reported as inconclusive [cytotoxic, single point].
With `CCN(CC)S(=O)(=O)c1ccc2nc(NC(=O)c3cccs3)sc2c1` the Potency was inconclusive [cytotoxic, single point].
For `CCNC(=O)c1c(NC(=O)c2cc(-c3cc(C)cc(C)c3O)n[nH]2)sc2c1CCCC2`, the Potency was “inactive”.
In the case of `CCOc1ccc(CN2CCCC(CO)(Cc3ccc(F)cc3)C2)cc1` (stereo not drawn), the Potency is reported as inconclusive [cytotoxic, single point].
For `C=CS(=O)c1sc(Cl)c(N2CCOCC2)c1[N+](=O)[O-]` (stereo not drawn), the Potency was inconclusive [cytotoxic, single point].
In the case of `COc1ccc(Cc2c(-c3ccccc3)nc3c4ccccc4ccn23)c(C)c1`, the Potency is reported as inconclusive [cytotoxic, single point].
With `C=CC[C@@H](CC(=O)N(CCO)Cc1ccccc1)C(=O)N[C@@H](COC(=O)[C@@H](CC=C)Cc1ccc(F)cc1)Cc1ccccc1` the Potency was inconclusive [cytotoxic, single point].
In the case of `Cc1noc(C)c1S(=O)(=O)N1CCCC(C(=O)NC2CCCCC2)C1` (stereo not drawn), the Potency is reported as inconclusive [rising, single point].
For `O=C(NNC(=O)c1cc(Br)ccc1O)c1csc(N2CCOCC2)n1`, the Potency was inconclusive [cytotoxic, single point].
In the case of `COc1cccc(-c2ccc3c(c2)O[C@H](CN(C)C(=O)c2ccccc2F)[C@H](C)CN([C@H](C)CO)S3(=O)=O)c1`, the Potency is reported as “inactive”.
With `O=C(COCc1cc(-c2ccc3c(c2)OCO3)on1)Nc1cccnc1` the Potency was active: 5.8 µM.
For `COc1ccc(Cl)cc1-c1cc(C(=O)Nc2cc(OC)c(OC)c(OC)c2)[nH]n1`, the Potency was inconclusive [cytotoxic, single point].
For `O=c1[nH]c(C2CCN(S(=O)(=O)c3ccc(S(=O)(=O)NC4CC4)cc3)CC2)nc2c1nnn2Cc1ccc(F)cc1`, the Potency was inconclusive [cytotoxic, single point].
For `Nc1nc(-c2ccco2)nc(N2CCCCC2)n1`, the Potency was “inactive”.
With `COc1ccc2c(c1)C(C)CC(C)(C)N2C(=O)CSc1nc2ccccc2s1` (stereo not drawn) the Potency was inconclusive [cytotoxic, partial curve].
For `COc1cc(OC)cc(C(=O)NC(=S)NCc2ccco2)c1`, the Potency was inconclusive [cytotoxic, single point].
In the case of `CC(C)=CCn1c2ccc(NC(=O)Nc3ccc(N(C)C)cc3)cc2c(=O)n1C`, the Potency is reported as inconclusive [cytotoxic, single point].
With `CCCCNC(=O)Oc1ccc(C(=O)N2c3ccccc3NC(=O)C2C)cc1` (stereo not drawn) the Potency was “inactive”.
With `CCOc1ccc2oc(C(=O)N3CCCN(C)CC3)c(C)c2c1` the Potency was “inactive”.
For `CC1CCCCN1C(=O)CSc1nc2cc3c(cc2c(=O)n1Cc1ccc2c(c1)OCO2)OCO3` (stereo not drawn), the Potency was “inactive”.
For `CN(C)c1ccc(-c2ccc([C@H]3[C@@H]4C=CCC[C@@]4(C)C(=O)N3Cc3ccccc3)c(F)c2)cc1`, the Potency was inconclusive [cytotoxic, single point].
With `COc1ccc(-c2csc(C3=C(O)CN(Cc4ccc(Cl)cc4)C3=N)n2)cc1OC` the Potency was inconclusive [cytotoxic, single point].
With `O=C(NCc1cccc(C(F)(F)F)c1)c1csc([C@H]2C[C@H](O)[C@@H](CO)O2)n1` the Potency was inconclusive [rising, single point].
With `O=C(O)C(O)Cc1c[nH]c2ccccc12` (stereo not drawn) the Potency was inconclusive [cytotoxic, single point].
In the case of `CC(C)c1ccccc1NC(=O)COC(=O)c1c2c(nc3ccccc13)CCN(Cc1ccccc1)C2`, the Potency is reported as inconclusive [cytotoxic, single point].
For `NC(c1csc(NC(=O)Nc2ccccc2)n1)C1CCCCC1` (stereo not drawn), the Potency was inconclusive [cytotoxic, single point].
In the case of `O=S(=O)(c1ccc(S(=O)(=O)N2CCN(C/C=C/c3ccccc3)CC2)cc1)N1CCCC1`, the Potency is reported as inconclusive [cytotoxic, partial curve].
With `Cc1ccc(NC(CNS(=O)(=O)c2ccc(Cl)cc2)c2ccccc2)cc1` (stereo not drawn) the Potency was inconclusive [cytotoxic, single point].
With `Cc1ccc(-c2nnn(CC(=O)N(CC(=O)NC3CCCC3)c3ccc(F)c(Cl)c3)n2)o1` the Potency was active: 16.4 µM.
For `COC(=O)c1ccc(OCC2NCCc3cc(OC)c(OC)cc32)cc1` (stereo not drawn), the Potency was “inactive”.
With `CC1=C(C(=O)Nc2ccccc2F)C(c2ccsc2)C2=C(CC(C)(C)CC2=O)N1` (stereo not drawn) the Potency was inconclusive [cytotoxic, single point].
For `O=C(/C=C\Nc1ccccc1Br)c1ccc2c(c1)OCO2`, the Potency was inconclusive [cytotoxic, single point].
With `COc1ccc(/C=C(\NC(=O)c2ccc([N+](=O)[O-])cc2)C(=O)N2CCOCC2)cc1` the Potency was “inactive”.
For `Cc1ccccc1CSc1nnc(CCCCCNC(=O)OC(C)(C)C)o1`, the Potency was inconclusive [cytotoxic, single point].
In the case of `CC(C)C[C@H](NC(=O)c1nc[nH]c1C(=O)N[C@@H](CC(C)C)C(=O)OC(C)(C)C)C(=O)OC(C)(C)C`, the Potency is reported as inconclusive [cytotoxic, single point].
With `CC(=O)Nc1ccc(NC(=O)CN(C)S(=O)(=O)c2ccc3c(c2)CCC(=O)N3)cc1` the Potency was “inactive”.
With `Cn1c(CN2CCCCC2)nc2cc(NC(=O)c3ccc(Cl)cc3)ccc21` the Potency was inconclusive [cytotoxic, partial curve].
For `Cn1ccc2c(-c3ccc(F)cc3F)cc3c(c21)C1CCC3C1` (stereo not drawn), the Potency was “inactive”.
For `COc1ccc(/C=N/Nc2nnc(C)n2N)cc1OC(C)=O`, the Potency was active: 16.4 µM.
For `c1cc2c(cc1-c1cnc3n1CCC3)OCCO2`, the Potency was inconclusive [cytotoxic, single point].
For `Cc1ccc(-n2c(C)cc(C3N=C(N)Nc4nc5ccccc5n43)c2C)c(C)c1` (stereo not drawn), the Potency was active: 20 µM.
With `Cc1ccc2[nH]c(=O)c(CN(Cc3cccnc3)C(=O)c3ccncc3)cc2c1` the Potency was inconclusive [cytotoxic, single point].
For `C=CCNc1nc(NCc2ccc(N(C)C)cc2)c2sc(-c3ccccc3)cc2n1`, the Potency was inconclusive [cytotoxic, single point].
In the case of `COc1ccccc1CNc1nc2cc(-c3ccccc3C)sc2c(=O)n1C`, the Potency is reported as inconclusive [cytotoxic, single point].
With `Cc1[nH]c2ccccc2c1/C=N/NC(=O)c1cc(C(C)(C)C)[nH]n1` the Potency was “inactive”.
With `N#C/C(=C\c1cccnc1)c1ccccc1[N+](=O)[O-]` the Potency was “inactive”.
In the case of `O=C(NCc1ccccc1)c1ccc(Oc2ccc(C(=O)NCc3ccccc3)cc2)cc1`, the Potency is reported as inconclusive [cytotoxic, partial curve].
For `O=[N+]([O-])c1cnc(Sc2ccncn2)s1`, the Potency was active: 16.4 µM.
In the case of `COc1ccc(-c2oc3ccc(N4CCOCC4)cc3c2C#CC2(O)CCCCC2)cc1`, the Potency is reported as active: 20.6 µM.
In the case of `Cc1onc(-c2ccccc2)c1CNC(=O)Nc1ccc(C(F)(F)F)cc1`, the Potency is reported as inconclusive [cytotoxic, single point].
In the case of `CN(C)CCCN1c2ccccc2Sc2ccc3ccccc3c21`, the Potency is reported as inconclusive [cytotoxic, partial curve, poor fit].
In the case of `COc1ccc(Nc2c3c(nc4ccccc24)CCC3)cc1`, the Potency is reported as inconclusive [cytotoxic, single point].
With `COc1ccc(-c2[nH]ncc2/C=C(/C#N)C(=O)NC2CCCCCC2)cc1` the Potency was inconclusive [cytotoxic, single point].
With `O=c1cc(-c2ccccc2)[nH]c2ccccc12` the Potency was active: 2.31 µM.
In the case of `Cc1ccc(OCC(=O)N(C)CC(=O)Nc2ccc(F)c(F)c2F)cc1`, the Potency is reported as “inactive”.
With `Cc1ccc(S(=O)(=O)N2CCC(C(=O)NCCCN3CCCCCC3)CC2)cc1` the Potency was inconclusive [cytotoxic, full curve].
With `Nc1ccccc1SCC(=O)Nc1ccc2c(c1)OCCO2` the Potency was inconclusive [cytotoxic, partial curve].
In the case of `CC1(C(=O)NCc2ccc(C(F)(F)F)cc2)CCN1Cc1cc2ccccc2o1` (stereo not drawn), the Potency is reported as inconclusive [cytotoxic, single point].
With `NNC(=O)c1[nH]c2ccc(Br)cc2c1-c1ccccc1` the Potency was active: 14.6 µM.
In the case of `CCOc1cccc(CN2CCCC(N3CCN(c4cccc(Cl)c4)CC3)C2)c1O` (stereo not drawn), the Potency is reported as “inactive”.
In the case of `CCNc1ccc(C2(O)C(=O)c3ccccc3C2=O)cc1`, the Potency is reported as “inactive”.
With `C=CCCC(=O)Nc1nc(C)c(-c2csc(Nc3cc(OC)ccc3OC)n2)s1` the Potency was active: 7.31 µM.
